# Assay results reported in PubChem BioAssay AID1458 (National Center for Advancing Translational Sciences (NCATS), 2008).
# About 5,900 (2.8%) of roughly 210,000 compounds were called active. Inconclusive means that the source gave no clear call. Such entries were picked first, then a sample of the others. Calls come from the whole dose curve; as a rule, active = well fitted activation curve with a large enough effect; inconclusive = small, poorly fitted or top-dose-only effect; inactive = no such curve, though single readings can be large or run the other way. Potencies of inconclusive entries are doubtful fits and often do not repeat.
# Assay: qHTS Assay for Enhancers of SMN2 Splice Variant Expression; note: nearly all actives have a fitted effect of over 55% in size; for activity change, positive = activation: % of control where 0% means no effect
# Settings: HEK293 SMN2-luciferase splicing reporter, luminescence, 30-36 h; activity change, positive = activation: at 46.1 µM (top of the series)
# In short: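 qHTS luciferase splicing reporter: luminescence rises when SMN2 exon 7 is included in transfected HEK293 cells. Compound exposure lasted 30-36 h at 37C, with 4.5 mM final sodium butyrate as control, followed by a ONE-Glo read.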
# Potency is the fitted concentration of half-maximal effect; tags give direction and shape of the fitted curve.
SMILES,Potency,"activity change, positive = activation"
O=C(CSc1nc2c(cnn2-c2ccc(F)cc2)c(=O)[nH]1)Nc1nccs1,"inconclusive: 11.2 µM [activator, partial curve]",–
CCc1cccc(NC(=O)Cn2cc(C=O)c3ccccc32)c1,–,inactive: -71.9%
Cc1ccc(NC(=O)Nc2ccc3c(c2)N(C)C(=O)CS3)nc1,"inconclusive: 14.1 µM [activator, single point]",–
COC(=O)c1sc(NC(=O)/C=C/c2ccc(C)cc2)nc1C,"inconclusive: 0.0794 µM [activator, full curve, poor fit]",–
Cc1nc2ccccc2n1C1CC(=O)N(N(C)C)C1=O (configuration not stated),"inconclusive: 0.316 µM [activator, full curve, poor fit]",–
N#CC(Cc1ccc(OC(F)F)cc1)c1nc2ccccc2[nH]1 (configuration not stated),"inconclusive: 12.6 µM [activator, partial curve]",–
O=C(COc1ccc(F)cc1)N1CCC(c2ccccc2)C1 (configuration not stated),active: 12.6 µM,–
CC(C)C(C)NC(=O)COC(=O)c1cc(S(=O)(=O)N(C)C)ccc1N1CCCC1 (configuration not stated),–,inactive: 6.06%
COC(=O)c1cc(NS(=O)(=O)c2ccc(N3CCOCC3)c(N)c2)cc(C(=O)OC)c1,"inconclusive: 35.5 µM [activator, single point]",–
CON1C(=O)CN(C(C)=O)C1c1ccc(Cl)cc1Cl (configuration not stated),"inconclusive: 0.251 µM [activator, full curve]",–
COc1ccccc1CNS(=O)(=O)c1cc(Br)cc2c1N(C(C)=O)C(C)C2 (configuration not stated),"inconclusive: 35.5 µM [activator, single point]",–
N/C(=N\OC(=O)c1ccco1)c1ccccn1,"inconclusive: 14.1 µM [activator, single point]",–
Cc1c(CCC(=O)O)c(=O)oc2cc3occ(-c4ccc(F)cc4)c3cc12,"inconclusive: 39.8 µM [activator, partial curve, poor fit]",–
COc1ccc(C2=Nc3ccccc3OC2)cc1,"inconclusive: 3.98 µM [activator, partial curve, poor fit]",–
O=C(c1noc2c1CCc1ccccc1-2)N1CCc2ccccc2C1,"inconclusive: 35.5 µM [activator, single point]",–
Cc1ccc2nc(-c3cc(N)cc(N)c3)oc2c1,"inconclusive: 35.5 µM [activator, single point]",–
Cc1cccc(NC(=O)NNC(=O)c2sccc2-n2cccc2)c1,–,inactive: -1.04%
Cc1cc(NC(=O)c2cccs2)ncc1NC(=O)c1cccc(F)c1,"inconclusive: 7.94 µM [activator, partial curve]",–
CCOC(=O)N1CCN(C(=O)COc2cc(=O)n(C)c3ccccc23)CC1,"inconclusive: 12.6 µM [activator, single point]",–
CN(C)c1ccc(/C=C2\CCCCC2=O)cc1,active: 22.4 µM,–
COc1ccc(C2C=C(C)Nc3nc4ccccc4n32)cc1 (configuration not stated),"inconclusive: 17.8 µM [activator, single point]",–
C/C(=N\Nc1ccc(F)cc1F)c1ccc(Br)s1,–,inactive: 3.15%
O=C(Nc1ccccc1SCC1CSc2nc3ccccc3c(=O)n21)c1cccc(Cl)c1 (configuration not stated),"inconclusive: 35.5 µM [activator, single point]",–
Cc1ccc(NC(=O)c2cncc(Br)c2)cc1S(=O)(=O)N(C)C,active: 11.2 µM,–

SMILES,Potency,"activity change, positive = activation"
O=C(Nc1ccc2sc3ccccc3c(=O)c2c1)c1ccccc1Cl,"inconclusive: 28.2 µM [activator, single point]",–
c1ccc(-c2cn3c(n2)-c2ccccc2C3)cc1,active: 0.501 µM,–
CCOC(=O)CN(C(=O)CNC(=O)c1cccs1)C(C(=O)NC1CCCC1)c1ccncc1 (configuration not stated),–,inactive: -7.6%
CN1CCc2c(sc3c2C(=O)NC(c2ccc(OC(=O)c4ccccc4)cc2)N3)C1 (configuration not stated),active: 15.8 µM,–
CCOc1cc2c(cc1OCC)C(c1ccc(OC)cc1)N(c1ccccc1)C(=O)C2 (configuration not stated),–,inconclusive: 41% [activator]
C(/C=C/c1ccccc1)=N/N1CCN(c2ccccc2)CC1,"inconclusive: 17.8 µM [activator, partial curve]",–
O=C(NCCF)[C@H]1C[C@@H]1[C@H](NP(=O)(c1ccccc1)c1ccccc1)c1ccccc1,"inconclusive: 0.0631 µM [activator, full curve, poor fit]",–
COc1ccc(C(=O)Cc2nnc(C)s2)cc1,"inconclusive: 35.5 µM [activator, single point]",–
CC(Cl)C(=O)NNc1cccc(Cl)n1 (configuration not stated),"inconclusive: 4.47 µM [activator, partial curve, poor fit]",–
Cc1nc2nncn2c(Nc2ccccc2)c1C,–,inactive: -26.1%
CCn1c2ccccc2c2cc(NC(=O)COc3ccc(C)cc3C)ccc21,–,inactive: -3.35%
CC(C)Nc1nc(NC(C)(C)C)nc(Oc2ccc(=O)n(C)n2)n1,"inconclusive: 12.6 µM [activator, single point]",–
COC(=O)c1sccc1NC(=S)N1C(C)CCCC1C (configuration not stated),–,inactive: -31.5%
CCOc1ccc(OCC)c(NC(=O)c2[nH]c(C)c(C(C)=O)c2C)c1,"inconclusive: 0.0447 µM [activator, full curve, poor fit]",–
CCc1cccc2c(-c3ccccc3)nc(SCC(=O)Nc3ccccc3OC)nc12,–,inactive: -6.79%
O=C(N/N=C/c1cccc(O)c1)c1ccc(COc2ccc3c(c2)CCC3)o1,–,inactive: -27%
CC1CCN(C(=O)CSc2nnc(CNC(=O)c3ccco3)o2)CC1,"inconclusive: 6.31 µM [activator, single point]",–
C[C@@H](CN(C)C[C@H]1C(=O)O[C@@H]2C[C@@]3(C)CCC[C@]4(CO4)C3CC21)[C@H](O)c1ccccc1 (some centres not stated),–,inactive: 0.0467%
CC(C)OCCCNC(=O)c1cn(C)c2ccc(S(=O)(=O)N3CCCCCC3)cc2c1=O,"inconclusive: 0.708 µM [activator, full curve, poor fit]",–
c1csc(Cc2nn3c(-c4n[nH]c5c4CCC5)nnc3s2)c1,"inconclusive: 2.51 µM [activator, full curve, poor fit]",–
O=C(O)C(=O)/C(=C\c1ccc([N+](=O)[O-])cc1)c1ccc2ccccc2n1,active: 12.6 µM,–
COc1ccc2nc(NC(=O)CSc3nnc(-c4ccoc4C)n3C)sc2c1,"inconclusive: 15.8 µM [activator, single point]",–
Cc1ccc(C=Nc2ccccc2C(N)=O)o1,active: 11.2 µM,–
NC(=O)CSc1nc2cc([N+](=O)[O-])ccc2n1-c1cccc(C(F)(F)F)c1,"inconclusive: 20 µM [activator, partial curve, poor fit]",–

SMILES,Potency,"activity change, positive = activation"
O=C(CCCOc1ccccc1)N1CCN(c2ccccc2)CC1,"inconclusive: 14.1 µM [activator, single point]",–
O=C(CS(=O)(=O)Cc1ccccc1)Nc1ccccn1,"inconclusive: 3.98 µM [activator, single point]",–
CCN(CCCNC(=O)c1cc(Nc2ccc(OC)cc2OC)nc2ccccc12)c1cccc(C)c1,–,inactive: -7.55%
COc1cc(S(=O)(=O)Nc2ncccc2C)c(OC)cc1Cl,"inconclusive: 0.0224 µM [activator, full curve, poor fit]",–
CSc1ccc(/C=C/c2cc(=O)c3ccccc3[nH]2)cc1,–,inactive: 16.7%
COC(=O)c1ccc2c(c1)N(Cc1nc(-c3cccc(C)c3)oc1C)C(=O)C1CCCN21 (configuration not stated),active: 10 µM,–
CN(C(=O)C1CCOC1)c1nnc(-c2ccncc2)s1 (configuration not stated),"inconclusive: 0.631 µM [activator, full curve]",–
COc1ccccc1-c1nnc(NC(=O)C(C)SC2=NCCS2)s1 (configuration not stated),–,inactive: -21.6%
Nc1ncnc2c1ncn2CCOc1ccccc1,–,inactive: 8.84%
CC(C)S(=O)(=O)c1oc(-c2cccs2)nc1S(=O)(=O)c1ccc(F)cc1,–,inactive: -73.6%
Nc1nonc1C(=O)NCCNCc1cccc(Cl)c1Cl,–,inactive: -7.86%
Cn1c(=O)n(C)c2cc(NC(=O)CSc3nnc(-c4ccccc4O)n3-c3ccccc3)ccc21,"inconclusive: 22.4 µM [activator, single point]",–
COc1ccc(/C=N/NC(=O)C(=O)N2CCCC2)cc1OC,"inconclusive: 0.0035 µM [activator, full curve, poor fit]",–
COc1cc(/C=N/NC(=O)c2nc(C)cc(C)n2)ccc1O,"inconclusive: 7.94 µM [activator, partial curve]",–
CC1(C)CC(=O)c2sc(NC(=O)CN3CCOCC3)nc2C1,"inconclusive: 6.31 µM [activator, single point]",–
CCN(CC)C(=O)CSc1nc(O)cc(=O)n1C,"inconclusive: 8.91 µM [activator, partial curve, poor fit]",–
CON(C)S(=O)(=O)c1ccc2c(c1)N(Cc1ccc(C)cc1)C(=O)C1CCCN21 (configuration not stated),"inconclusive: 0.282 µM [activator, full curve, poor fit]",–
CCc1ccccc1NC(=O)c1cc2nc(-c3ccc(OC)c(OC)c3)cc(C(F)(F)F)n2n1,"inconclusive: 12.6 µM [activator, single point]",–
Cc1cc(C(=O)NCCN2CCN(c3cccc(Cl)c3)CC2)n(-c2ccccc2)n1,–,inactive: -11.7%
COc1cc(C(=O)Nc2sc(C(=O)N3CCOCC3)c(C)c2C#N)cc(OC)c1OC,"inconclusive: 7.08 µM [activator, partial curve]",–
COc1ccc(C(C)=O)cc1COc1nc(C)nc2ccccc12,–,inactive: 8.48%
CCOC(=O)c1ccc(N/C=C\C(=O)c2cccc(OC)c2)cc1,"inconclusive: 10 µM [activator, single point]",–
COc1ccc(C(=O)Nc2ccc(Cl)cn2)cc1Cl,"inconclusive: 31.6 µM [activator, single point]",–
O=C(NCc1ccc(F)cc1)c1cnn2ccccc12,active: 12.6 µM,–
